{"source": "PubChem BioAssay AID624173", "about": "(National Center for Advancing Translational Sciences (NCATS), 2012)", "note": "Where “and” joins values, the source holds several entries; their conditions need not be identical. Equal values may be shown once. Screen size: about 410,000 compounds; about 490 (0.12%) were called active. Inconclusive means that the source gave no clear call. Such entries were picked first, then a sample of the others. The call rests on the fitted dose curve; in most records, active means well fitted inhibition curve with a large enough effect; inconclusive means small, poorly fitted or top-dose-only effect; inactive means flat fitted curve, though single readings scatter. Where the call is inconclusive, the potency comes from a doubtful curve fit. On the % scale 0 is the no-effect control and ±100 the full control effect; potency means the concentration at half of the fitted maximal effect; tags describe the fitted curve by direction and shape."}
{"molecular_target": "pyruvate kinase (Trypanosoma brucei) (UniProt Q57TT1)", "assay": "qHTS of Trypanosoma Brucei Inhibitors; further: nearly all actives have a fitted effect of over 50% in size", "conditions": "TbPYK enzyme, Kinase-Glo Plus ATP luminescence, 45 min; series mostly up to 76.8 µM; activity, negative = inhibition: at the top concentration", "method_in_brief": "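Luminescence from Kinase-Glo Plus, added after a 45-minute room-temperature reaction, served as the end-point read-out. The enzyme and substrate were preincubated with compound before ADP (130 uM final) initiated turnover. Concentration-effect curves came from normalized qHTS data.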"}
{"compound": "O=C(NCc1ccccc1)c1ccc2nc(-c3ccco3)c(-c3ccco3)nc2c1", "Potency": "inconclusive: 25.1 µM [inhibitor, partial curve]"}
{"compound": "O=C(CCC(=O)c1cccs1)NC(c1ccccc1)c1ccccc1", "activity, negative = inhibition": "inactive: 1.11%"}
{"compound": "S=c1[nH]nc(-c2ccc(Cl)cc2)n1-c1ccc(Cl)cc1", "Potency": "inconclusive: 6.31 µM [inhibitor, partial curve, poor fit]"}
{"compound": "COc1ccc(OC(C)c2nc3ccccc3[nH]2)cc1", "note": "(configuration not stated)", "activity, negative = inhibition": "inactive: 1.88%"}
{"compound": "Cc1ccc(S(=O)c2ccc([N+](=O)[O-])c3nonc23)cc1", "note": "(configuration not stated)", "Potency": "active: 6.31 µM"}
{"compound": "CN1c2ccccc2N(C)C1(C)c1ccccc1", "Potency": "inconclusive: 17.8 µM [inhibitor, partial curve, poor fit]"}
{"compound": "CCOc1ccc(S(=O)(=O)N/N=C2/CCCC(=O)C2)cc1", "activity, negative = inhibition": "inactive: -14.2%"}
{"compound": "Cc1nn(Cc2ccccc2)c(C)c1C=C1C(=O)NC(=O)NC1=O", "Potency": "inconclusive: 31.6 µM [inhibitor, partial curve, poor fit]"}
{"compound": "COc1ccc(N2C(=O)/C(=C/c3ccco3)C(=O)NC2=S)cc1", "Potency": "inconclusive: 28.2 µM [inhibitor, partial curve]"}
{"compound": "CCN(CC)c1ccc(-c2n[nH]c(=S)n2-c2ccccc2)cc1", "Potency": "inconclusive: 5.62 µM [inhibitor, partial curve]"}
{"compound": "COc1ccc(S(=O)(=O)N2CCCC(C(=O)Nc3cccnc3)C2)cc1Cl", "note": "(configuration not stated)", "Potency": "inconclusive: 14.1 µM [inhibitor, partial curve]"}
{"compound": "Cc1ccc2c(c1C)NC(C(=O)O)C1CC=CC21", "note": "(configuration not stated)", "Potency": "inconclusive: 20 µM [inhibitor, partial curve, poor fit]"}
{"compound": "COc1ccc(-c2cc(-c3n[nH]c(=S)n3-c3ccccc3Cl)[nH]n2)cc1", "Potency": "inconclusive: 17.8 µM [inhibitor, partial curve, poor fit]"}
{"compound": "NNc1nc2ccccc2nc1C(F)(F)F", "Potency": "inconclusive: 35.5 µM [inhibitor, single point]"}
{"compound": "CC[n+]1c(/C=C2\\C=C(C)CC(C)(C)C2)sc2ccccc21", "Potency": "inconclusive: 31.6 µM [inhibitor, partial curve, poor fit]"}
{"compound": "COc1cc(-c2c(C#N)c(N)nc3c2CCCC3)ccc1O", "Potency": "inconclusive: 31.6 µM [inhibitor, single point]"}
{"compound": "CCOC(=O)C1=C(C)N=c2s/c(=C\\c3ccc(OCC(=O)O)cc3)c(=O)n2C1c1ccccc1", "note": "(configuration not stated)", "Potency": "inconclusive: 50.1 µM [inhibitor, single point]"}
{"compound": "O=C(NC(c1ccc(Cl)cc1)c1cc(Cl)c2cccnc2c1O)c1cccnc1", "note": "(configuration not stated)", "activity, negative = inhibition": "inactive: -5.87%"}
{"compound": "CCN(CC)c1ccc(N)cc1S(=O)(=O)Nc1ccccc1OC", "Potency": "inconclusive: 10 µM [inhibitor, partial curve, poor fit]"}
{"compound": "CCOc1ccc(N2C(=O)/C(=C/c3ccco3)C(=O)NC2=S)cc1", "Potency": "inconclusive: 15.8 µM [inhibitor, partial curve]"}
{"compound": "CCC(/C=C1\\Sc2ccc(OC)cc2N1CCO)=C\\c1sc2ccc(OC)cc2[n+]1CCO", "Potency": "inconclusive: 12.6 µM [inhibitor, partial curve, poor fit]"}
{"compound": "CC(=O)NC(=S)NNC(=O)COc1ccc([N+](=O)[O-])cc1", "Potency": "inconclusive: 35.5 µM [inhibitor, single point]"}
{"compound": "O=C(NCC1CCCO1)c1ccc(/C=N/O)nc1", "note": "(configuration not stated)", "Potency": "inconclusive: 50.1 µM [inhibitor, single point]"}
{"compound": "CCCOc1ccc(-c2csc3nc[nH]c(=O)c23)cc1", "activity, negative = inhibition": "inactive: -10.4%"}
{"compound": "O=[N+]([O-])c1cc(Cl)cc(/C=N\\Nc2ccccn2)c1O", "Potency": "inconclusive: 50.1 µM [inhibitor, single point]"}
{"compound": "S=c1[nH]nc(C2CC2c2ccc(Cl)cc2)n1-c1ccc(Cl)cc1", "note": "(configuration not stated)", "Potency": "inconclusive: 39.8 µM [inhibitor, partial curve, poor fit]"}
{"compound": "O=C(/C=C/Nc1ccc(F)cc1F)c1ccco1", "Potency": "inconclusive: 12.6 µM [inhibitor, partial curve]"}
{"compound": "CCOc1ccc(/C=C(\\C#N)C(=O)Nc2sc3c(c2C(=O)OC)C(C(=O)OC)CC3)cc1OC", "note": "(configuration not stated)", "Potency": "inconclusive: 5.62 µM [inhibitor, partial curve, poor fit]"}
{"compound": "CCOC(=O)c1ccc(N2CSC3=C(C#N)C(c4ccc(OC)cc4OC)CC(=O)N3C2)cc1", "note": "(configuration not stated)", "Potency": "inconclusive: 39.8 µM [inhibitor, partial curve, poor fit]"}
{"compound": "Cc1cc(OCC(=O)Nc2cnn(CCCC(=O)O)c2)ccc1Cl", "Potency": "inconclusive: 28.2 µM [inhibitor, single point]"}
{"compound": "O=c1c(-c2ccc3c(c2)OCCO3)coc2cc(O)cc(O)c12", "activity, negative = inhibition": "inactive: 0%"}
{"compound": "O=C(NCC(=O)N1CCN(c2ccccc2F)CC1)c1ccc(Br)o1", "activity, negative = inhibition": "inactive: -0.745%"}
{"compound": "CC(C)Cn1c(-c2csc3c2CCCC3)n[nH]c1=S", "Potency": "inconclusive: 6.31 µM [inhibitor, partial curve]"}
{"compound": "CN(CCO)c1nc(N)c2c(N)nc3c(c2c1C#N)CC(=O)N3Cc1cccs1", "Potency": "inconclusive: 31.6 µM [inhibitor, partial curve, poor fit]"}
{"compound": "Cc1cccc(-c2n[nH]c(=S)n2/N=C/c2ccco2)c1", "Potency": "inconclusive: 7.08 µM [inhibitor, partial curve]"}
{"compound": "Cc1nnc(NC(=O)C2c3ccccc3Oc3ccccc32)s1", "Potency": "inconclusive: 7.08 µM [inhibitor, partial curve, poor fit]"}
{"compound": "N#CCCN(Cc1cccnc1)C(=S)NC(=O)c1ccccc1", "Potency": "inconclusive: 25.1 µM [inhibitor, single point]"}
{"compound": "CS/C(=N\\S(=O)(=O)c1cccs1)NC(=O)CSc1nc2ccccc2s1", "Potency": "inconclusive: 25.1 µM [inhibitor, partial curve, poor fit] and inconclusive: 39.8 µM [inhibitor, single point]"}
{"compound": "C(=C\\c1nc2ccccc2[nH]1)/c1ccccc1", "Potency": "inconclusive: 31.6 µM [inhibitor, partial curve, poor fit]"}
{"compound": "O=C(Nc1ccc(Cl)cc1)N1N=CCC1c1ccccc1", "note": "(configuration not stated)", "activity, negative = inhibition": "inactive: 8.33%"}
{"compound": "CCOc1ccc(N2CC(C(=O)Nc3ccc(S(=O)(=O)N4CCCC4)cc3)CC2=O)cc1", "note": "(configuration not stated)", "Potency": "inconclusive: 22.4 µM [inhibitor, partial curve, poor fit]"}
{"compound": "COc1ccc(Cn2nnnc2C(c2cccnc2)N2CCN(c3ccc(O)cc3)CC2)cc1", "note": "(configuration not stated)", "Potency": "inconclusive: 28.2 µM [inhibitor, single point]"}
{"compound": "CC1COCC(C)N1C1=C(Cl)C(=O)c2ccccc2C1=O", "note": "(configuration not stated)", "Potency": "active: 22.4 µM"}
{"compound": "CCOc1ccc(NC(=O)CC2C(=O)N(c3cccc(C)c3)C(=O)N2Cc2ccco2)cc1", "note": "(configuration not stated)", "activity, negative = inhibition": "inactive: -4.55%"}
{"compound": "CCCCCCCc1n[nH]c(=S)n1Cc1ccccc1", "Potency": "inconclusive: 17.8 µM [inhibitor, partial curve]"}
{"compound": "COc1ccccc1NC(=O)c1sc2nc(-c3cc4ccccc4oc3=O)[nH]c(=O)c2c1C", "activity, negative = inhibition": "inactive: -5.32%"}
{"compound": "COc1cc(/C=N/N2CCN(Cc3ccc(C)cc3)CC2)cc(OC)c1O", "Potency": "active: 14.1 µM"}
{"compound": "CCc1nc2c(n1O)CCc1nonc1-2", "Potency": "inconclusive: 39.8 µM [inhibitor, single point]"}
{"compound": "COc1ccccc1NC(=O)C1=C(C)Nc2ncnn2C1c1ccccn1", "note": "(configuration not stated)", "activity, negative = inhibition": "inactive: -0.217%"}
{"compound": "O=C(CN1CCN(c2ccc(O)cc2)CC1)NC(c1ccccc1)c1ccccc1", "Potency": "inconclusive: 35.5 µM [inhibitor, partial curve, poor fit]"}
{"compound": "CN(Cc1cn(-c2ccccc2)nc1-c1cc2ccccc2o1)C(=O)CCC(=O)O", "Potency": "inconclusive: 31.6 µM [inhibitor, single point]"}
{"compound": "CCN(CC)c1ccc(NC(=O)c2ccc(=O)[nH]c2)cc1S(=O)(=O)Nc1ccccc1OC", "Potency": "inconclusive: 35.5 µM [inhibitor, partial curve, poor fit]"}
{"compound": "N=c1n(CC(=O)c2ccc([N+](=O)[O-])cc2)c2ccccc2n1Cc1ccc(Cl)cc1", "activity, negative = inhibition": "inactive: -2.06%"}
{"compound": "O=C(COC(=O)c1ccc(Cl)c(S(=O)(=O)N2CCCCCC2)c1)Nc1ccccc1", "activity, negative = inhibition": "inactive: -5.41%"}
{"compound": "CC(C)(C)c1ccc(CC(=O)N2CCC2(C)C(=O)Nc2cnc3ccccc3c2)cc1", "note": "(configuration not stated)", "activity, negative = inhibition": "inactive: -1.68%"}
{"compound": "CC1CCN(CC(=O)N2CCc3ccccc32)CC1", "activity, negative = inhibition": "inactive: 0%"}
{"compound": "Cc1cc(C(=O)NC2CCCc3c2cnn3-c2ccc(C(C)(C)C)cc2)nn1C", "note": "(configuration not stated)", "activity, negative = inhibition": "inactive: 0.021%"}
{"compound": "CCOc1ccc(C(CC(=O)O)NC(=O)C2c3ccccc3Oc3ccccc32)cc1", "note": "(configuration not stated)", "activity, negative = inhibition": "inactive: 1.3%"}
{"compound": "CC(C)(C)OC(=O)N1CCC2(CC1)C(C#N)=C(N)OC1=C2C(=O)CCC1", "Potency": "inconclusive: 35.5 µM [inhibitor, single point]"}
{"compound": "CCCCN1C(=O)/C(=c2\\sc3nc(=O)c(-c4ccccc4)nn3c2=O)c2ccccc21", "Potency": "inconclusive: 35.5 µM [inhibitor, single point]"}
{"compound": "CCOC(=O)C1=C(c2ccccc2)OC(N)=C(C#N)C1c1cccnc1", "note": "(configuration not stated)", "activity, negative = inhibition": "inactive: 5.79%"}
{"compound": "CCn1c(O)c(C=Nc2ccc(S(N)(=O)=O)cc2)c(=O)[nH]c1=S", "Potency": "inconclusive: 35.5 µM [inhibitor, partial curve, poor fit]"}
{"compound": "COC(=O)c1cc2oc3ccccc3c2n1CC(=O)Nc1ccc(C)cc1C", "activity, negative = inhibition": "inactive: 4.01%"}
{"compound": "COc1ccc(-c2cc3nc(C)n(N)c(=O)c3s2)cc1", "Potency": "inconclusive: 6.31 µM [inhibitor, full curve, poor fit]"}
{"compound": "COC(=O)C1=C(N)OC2=C(C(=O)CC(C)(C)C2)C1c1ccoc1", "note": "(configuration not stated)", "Potency": "inconclusive: 39.8 µM [inhibitor, partial curve, poor fit]"}
{"compound": "COc1ccccc1N1CCN(C(=O)CSc2nc(-c3ccco3)cc(C(F)(F)F)n2)CC1", "Potency": "inconclusive: 56.2 µM [inhibitor, single point]"}
{"compound": "CCOC(=O)c1ccc(NC(=O)c2c(NCc3cccc(OC)c3OC)sc3c2CCC3)cc1", "Potency": "inconclusive: 50.1 µM [inhibitor, single point]"}
